Measurements published in the supplement of paper PMC12217912.
Some of the results follow. Sequences were assembled here from the parent chain. Inactive controls read about 0.05.

B1: TEV protease; numbered along this chain (parent)
chain: MGESLFKGPRDYNPISSSICHLTNESDGHTTSLYGIGFGPFIITNKHLFRRNNGTLVVQSLHGVFKVKDTTTLQQHLVDGRDMIIIRMPKDFPPFPQKLKFREPQREERICLVTTNFQTKSMSSMVSDTSCTFPSGDGIFWKHWIQTKDGQCGSPLVSTRDGFIVGIHSASNFTNTNNYFTSVPKNFMELLTNQEAQQWVSGWRLNADSVLWGGHKVFMVKPEEPFQPVKEATQL

Variants of: B1
Assay: raw area under fraction-flipped curve 0-4 h after induction (AUC4h, not background-subtracted), DNA-recorder readout of cleavage of the substrate (dimensionless); higher = more cleavage of the substrate by the protease variant
Settings: temperature: 34 °C; time window: 0-4 h after rhamnose induction
Method: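 In vivo DNA recorder in E. coli TOP10(DE3) ΔrhaA at 34 °C. Each TEVp single-site mutant (parent TEVp 0) is paired with a single-site variant of the 7-mer TEVs (canonical ENLYFQ|S). The substrate sits between flexible linkers in a Bxb1-sfGFP-TEVs-SsrA fusion, so cleavage stabilises Bxb1 and speeds flipping of a recombination array, read by NGS. The value is the raw area under the fraction-flipped curve over 0-4 h after rhamnose induction (AUC4h), with ≥20 reads per time point. It is not background-subtracted; inactive controls average about 0.047.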
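Also: Bxb1 expression induced with 0.2% (w/v) L-rhamnose at OD600 near 0.5, cultures sampled hourly, flipped fraction per protease–substrate barcode pair counted by paired-end Illumina sequencing.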

Variant	area with substrate ENLYFQC	area with substrate ENLYFQG	area with substrate ENLYFQI	area with substrate ENLYFQK	area with substrate ENLYFQL	area with substrate ENLYFQM	area with substrate ENLYFQN	area with substrate ENLYFQP	area with substrate ENLYFQR	area with substrate ENLYFQS	area with substrate ENLYFQT	area with substrate ENLYFQW	area with substrate ENLYFQD	area with substrate ENLYFQE	area with substrate ENLYFQV	area with substrate ENLYFQY	area with substrate ENLYFQH	area with substrate ENLYFQQ	area with substrate ENLYFQF
Y179R	0.0564	0.118	0.0484	0.0642	0.079	0.0501	0.0588	0.0548	0.0613	0.0592	0.0631	0.0596							
E195N	0.0889	0.104					0.0672		0.0473	0.102	0.0425	0.0661	0.106	0.0537	0.0563	0.0905			
D79T		0.125			0.0512	0.0719	0.0731	0.0506		0.0915		0.0588							
G166W			0.0531				0.0592	0.047	0.0544	0.0501	0.0665	0.0399			0.0467	0.0716	0.0526	0.0491	
K100Y			0.0542	0.0576		0.0711	0.0867			0.105	0.0617		0.0654			0.0904	0.0595		
I15M		0.0871	0.0488	0.0628	0.047	0.08	0.068	0.0672		0.0989	0.0646	0.0557	0.0883				0.0709		
M219W	0.128	0.0971	0.0736	0.0698	0.0684	0.0837	0.0733		0.0643	0.101	0.0696	0.0362	0.0719			0.0888	0.0876	0.114	0.065
T129L			0.0533	0.0604	0.0653	0.0709	0.0768		0.0711	0.0964	0.0585				0.0614	0.0549	0.0852		
V229E	0.132		0.0619			0.0955	0.0846			0.108	0.067	0.0584	0.107			0.0713	0.108		0.0878
V229K	0.127		0.0537	0.0757	0.0677			0.0549		0.106	0.0789	0.0662			0.0696			0.0707	
L205H		0.0778								0.0753	0.0564	0.0581					0.0588	0.0481	0.0749
P134Q		0.135		0.052	0.0594			0.0615		0.0892		0.0579	0.0604						
A207T	0.088	0.0976			0.0555	0.0849	0.0933		0.0498	0.102		0.0499	0.0328	0.0734	0.0473	0.0732	0.0755		
F140W			0.0367	0.0642						0.0974		0.0667				0.0581			0.0598
Q234V	0.101	0.1	0.0601	0.0678	0.0564	0.0793	0.0818		0.0627	0.0968	0.0614				0.0645	0.0835		0.0688	0.0711
Q97H			0.0664	0.0847	0.0506			0.0468	0.0627	0.0965	0.0697	0.0629			0.0652				
G54K		0.193				0.0611	0.0521		0.0582	0.0746	0.0688	0.0529	0.0626				0.0635	0.0663	0.0509
E231N	0.125	0.0892		0.0681	0.0545	0.103	0.0935	0.0614	0.0621	0.105	0.0836	0.0773	0.0879		0.0579	0.0822			
E231V	0.101	0.0944	0.0549		0.0664			0.0919	0.0747	0.1	0.0562	0.0591	0.0688		0.0554	0.0837			
S135K		0.0651	0.0582	0.0709	0.0579	0.0441	0.0566	0.0511	0.0548	0.0639	0.0792		0.0572			0.0621	0.0535		
M188S	0.117	0.0968	0.0565	0.0702		0.0692	0.0609		0.066	0.105	0.0646								
H62I			0.0604				0.0883		0.075	0.0977	0.0608			0.0681		0.0945			
C131M			0.0563	0.0456	0.0589	0.0872	0.0793		0.0513	0.0962		0.0477	0.0722		0.0574	0.0778		0.0702	0.105
